Data published in publication PMC10726135.
The list shows a part of the results. At the low end of the ranking the order means little. Measured with an extract: partners may take part in the binding.

target: T1, HNF4alpha8 (COS-7 nuclear extract) (UniProt P41235-5); assay: protein-binding microarray; conditions: COS-7 nuclear extract on double-stranded Agilent 4x180k PBM; binding buffer, salt, pH and temperature not given; high values mean tight binding; double strand, one strand shown; sequences stand for … in …GCCTAGGGAGATTAGAGTATCGGTCGA
T1 sequence: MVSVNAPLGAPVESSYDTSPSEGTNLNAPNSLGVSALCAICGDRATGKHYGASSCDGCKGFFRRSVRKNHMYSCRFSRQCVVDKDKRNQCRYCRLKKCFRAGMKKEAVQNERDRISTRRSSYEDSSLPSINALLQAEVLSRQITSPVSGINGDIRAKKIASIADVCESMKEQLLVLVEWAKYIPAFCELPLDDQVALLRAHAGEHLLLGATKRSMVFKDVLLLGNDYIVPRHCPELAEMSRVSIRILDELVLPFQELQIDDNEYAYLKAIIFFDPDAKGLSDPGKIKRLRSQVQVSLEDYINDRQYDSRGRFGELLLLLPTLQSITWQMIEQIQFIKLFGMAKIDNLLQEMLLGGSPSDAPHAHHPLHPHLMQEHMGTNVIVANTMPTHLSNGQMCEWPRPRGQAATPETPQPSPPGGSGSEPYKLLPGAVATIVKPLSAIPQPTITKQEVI

Row | Sequence | binding signal (log2 normalized intensity)
1 | TGTTTGTTTCACTAATGTAGATTTTCTCTG | 0.729
2 | AGTGGCCCAGTGTCTCTGGGCGCTGGGAAG | -0.966
3 | TCTGTTGTCTCTGTAAATAAATGTCATTTA | 1.21
4 | CTGCCTGTGCTGTGGCTGCCAAGACACAGA | -0.998
5 | GAGTCTTAGAGTCCAGACACAAAGAGACAA | -1.42
6 | AAGGAGGTGAACTTTGAGACTATCCTTGGA | 4.09
7 | TTATTTAGTAGTGGCAAGAGAAGCCCCATG | -0.785
8 | TGACTGTGATACCAGGGGTCATTTTATGGG | 3.59
9 | GGGGAAACAAAATAATAGTTGACCTTTGAG | 6.69
10 | AGTGTGCACTTTGCACCTGGGCTGGAAAGG | 3.95
11 | CTGTTTTGGATTTTAAAAGCCCTCAAATAC | 0.856
12 | TCTCCATTCAGCATTGCTTGGGAGCAGTCC | -0.21
13 | ACCACAGCGGGGCCTCTGTGTGGGGCTGAT | -1.33
14 | AAAGCCATGAAGCAATTCTGAGCCCAACCT | -1.35
15 | ATCATCTCTTGTCTGGAATACCTTCTGCAT | 0.321
16 | AGATCCATTGCATGTGCATTTCACAATAGG | 0.639
17 | ACTGTTTGGCCTATGGGAAAACAGGCTCAG | -1.37
18 | AAAGCACTTTGCCCCCAAGAAAAGGTTCCT | 3.78
19 | TTTAACTCTTTATCTTTCTCCTACAGCCTG | -1.24
20 | GACTACAAATTCCTCAATCCAGTCATCTCA | -1.33
21 | ACCCTGAATGTGTGCTGGCCTGGTTCCTTC | 1.34
22 | ACCTTTGACCCTTTATAATCCCCTATGCTC | 4.63
23 | ACTTTTGGCCATCGCACGAGCAAGTTTATT | -1.31
24 | TGGAGATAACACAACCCCTACTGTACCCTA | 2.21
25 | TCACCTGGCAAGGCAGCCTCAGCCACACGC | -1.36

Row | Sequence | binding signal (log2 normalized intensity)
26 | AGAACTAGCCAGACCTGTTCCTCTGCCCCT | 2.76
27 | CTCTCTGTGTCACATACACCTGCGTGTACT | 1.68
28 | AGCTGTGCCCCAGTCCTTCAGTCCTTCCCC | 2.67
29 | TCAGTAAGGAGAGGGGGCGGGGAGAGGGAA | -1.34
30 | TGCCATTCTTCCAGTTGTGTGCACAAGAGG | 1.74
31 | GCATGGAATGCAGGAGATCCAGTAGGGCGT | -0.5
32 | ATGACCTTTGACTGAGATGGGAGCAGTGCT | 3.52
33 | GACGGCGGATCCTCCCAGCCTGGAGGAGGG | -1.06
34 | GCCCTCCCAGCCTATTAACCCCAAATTCCT | 4.31
35 | CCGGCATGATCTTGCTCTCTTGTGCTCATG | 1.34
36 | ATCCTTTACCTCCACCTCCAAGGTCCCCAA | 3.43
37 | ACTCCTCGTGGCCCCTGGGTCGTTGGTGCT | 1.21
38 | CCTCTGCATTTGCTCCCTGACTTGGTTTAC | 1.48
39 | TGTGCACAGTCCACAGAAACGCAGTCCTGA | -1.36
40 | TCTTGTGGTAATCTCTTTTGTGTTAGAGGG | 1.02
41 | ATTTTCTAGGAGAATCACTAGGACATATAT | -0.947
42 | AACACATACCTTAAATAAGAGACTCAGGCC | -1.03
43 | GCAGCTTGTACCCTTCTTTCCACCCTGTTG | 1.55
44 | GAGAGCATTCTGCTGCTCTTTAATCCTAAT | -1.01
45 | CCTCTGGACAAGGGAAGCGTCAATGCCCCA | 2.55
46 | AGCATGGCCCTTTGCAGCCCGAGCTGCTGG | -1.39
47 | AGAGAGAGGGAGACAACCTTTGGTCACTTG | 4.09
48 | GGCTAGGGCAAAGATCAAACATACAGTAAA | 2.52
49 | ATATAAGGTCCAACTGACATCTGGAAATGT | 0.972
50 | CTCCAAAGGCTGTTTGCACCGTGTGCTTTG | 0.798

Row | Sequence | binding signal (log2 normalized intensity)
51 | CTTTGCCCTTTGTTTACATAGCTCCTTCAT | 1.42
52 | ACATTATCTAACAAGAAGTCTGAAGGCAGG | -1.04
53 | TCTGGGGCCCTCTTCTGCATTCTTCTTCTA | -1.2
54 | GATCTCCTGCACCTGAACTTTGCTCTGTGA | 5.78
55 | GTCCCAGTAGATAACTTCAAGGAGCTCGGC | -0.935
56 | GAAAGCCAGCAGGGGCTGCTGGGAGTTGTA | 0.219
57 | GGTTAGCAAGGGCCCCCACTAGAGAGACCG | 1.75
58 | TGCCCAGCTTGAATCACTCACTGACCTCTT | 4.46
59 | GGGAGTTGTAGTTTTTTGGGCCCCTAGACT | 0.928
60 | TTAATGTCAAACTGATCAGAAGTGGTTACA | 0.916
61 | ACTTTGGTTCACCGCTCACTGCTCCAGCCA | -1.39
62 | CACATTGCAGTATGCCCCCCCACCCCACAC | 6.96
63 | CTAGATTCCAGGAAGAAAGATTGAAGTCTG | -1.11
64 | ACTTTGACCTTGTTTTCAATGACTACCTGT | 2.13
65 | TTCTAGATGACCCCTCTCTACTGGTAAGCA | 3.06
66 | GCATGCACTGGGGTTTAAAGTTTATAGGCT | -0.0544
67 | ATTACCTGTTCTAAGCACCTCTGCTTATCT | -0.361
68 | TGCACATGAGTTCCCGGCAAGCCGACTTAC | -1.36
69 | GCCGCCACCCGGTTGGCGCCAATACCTGCC | -1.32
70 | TGCAAACTCCAGCATGAGGGGGTGGACTGA | 1.16
71 | AAACATGCGCATGTTCCCACGAAACCCTAA | 1.59
72 | TCAAATGCACCAAAAATATCTTTGTCTCAG | -0.256
73 | GCGCCACTGCGTCCAGCCACAATTAATGTA | -1.18
74 | GGCGCAATCTCAGCTCAATCTCTGTCGCCC | -1.34
75 | TCTTTAAGACAAGTGTCCCTCAAACTGAAG | 0.792

Row | Sequence | binding signal (log2 normalized intensity)
76 | GCTGAGTCCCTGCTTGATAAGACTGACAAC | -1.36
77 | TGGTAGCATGGCTCAGTCCAAGTCCAAAGG | 5.2
78 | CTTTGACCATCCACGGATGCATGATTGCTC | -0.923
79 | AAGCTCATGAAGCTTCCCCTTTAACCAATA | 1.17
80 | GCACACCGGACTGCGTTTTTTCCGAACGCC | -1.32
81 | AGAGGGGAAGGATGAATTTAAAAAATTCTA | -1.34
82 | TGGTTTTTGTTGTTGAGCAAATCATAGTGT | 2.19
83 | TATTGTGAGATTACGTAAGTGAAAGTACAC | 1.89
84 | CAAATGATGTCTCTCATTGGAATGAGCCTC | 0.958
85 | TGGCAGTGAAGGAACTATTGGATTCCCCAA | 0.069
86 | TGGGCAGTGCAGTATGCGCTCTGGGAAACA | -1.31
87 | GGAGCAGCCTAGTAAAAGGTAGATACTATA | -1.37
88 | AACCCATGGGAAGCTTCACAAAGGGCTGAG | -1.35
89 | GGAAGAACTGGTTCTGTGGAATTTGTGCTT | 2.39
90 | TTTGAAGCAAAGCCTTTGAGCAGATGGAAG | -1.36
91 | AACATCTGTATTTAACTTTTGGGATCAGCA | 0.892
92 | CCTGTTCTTTTGAGCTGTGGTTAAGACTCA | 0.124
93 | CTCTGCAGAGGCTTCCTCTTTGGTGCAAAG | -1.11
94 | TCCTAGGGAAGAAACATTCTGATCAAATAG | -0.219
95 | CTGCGTAACTTACAGTGCACTTTGACCGCT | 7.74
96 | ATATTTGTGATTTGAAATTTGTCCTGGTCA | 2.06
97 | CTGGCAAAACTGGTCAATATCCACACAAAC | -1.12
98 | GAGATAAGGCAAGTCCCTTCCACCTATGAA | -1.31
99 | CCACATTCTTTTAGTGTGCTCTGGGTCTGT | 2.4
100 | CTGGTACCATGGATGCACTCCATTTACAGA | -0.982

Row | Sequence | binding signal (log2 normalized intensity)
101 | CACACTGCAGCGGCATTCTCTGGTCTGCGG | -1.25
102 | GGTGGGCTCCACCCAGTTCGTGCTTCTTGG | -1.26
103 | TTGCTTCTGCCCCCTGGAGGAGCAAATACT | 2.89
104 | GGATTTTTGCTGAAGACAGGCCAGGGTGAT | 0.0228
105 | ATGGTCTGCTTGATAGCCATCTGGTGGACT | 2.74
106 | AGTAAAGGACAAAGTCAACGGCTCTGCATA | -0.847
107 | CAGGCTCCACCGGATGGATAGGAATTGAGT | -1.28
108 | GGCCAGTTCAGCGCGTCTTAGCACTCACCC | -1.33
109 | AGGTGACAGTTAGGTAAGAGACAAAGGTTG | 2.27
110 | TAAGCACAGGTTTCTGTCCTGGTCACAGTA | 0.983
111 | AGACAACTTAGAATTTCATTTTGCTCTTTG | 1.63
112 | GCTACGCACCAGGCATACTCCTCCTGGCTT | -1.3
113 | AAATTTGTGTGTAACATTTGACTTCCCCAA | 2.47
114 | CTTTTCAGTGCAAGGGACCTAGGTGAGCAG | 1.28
115 | GGGCAGCCCGTGTGGGCGGGTGCAGCTTCC | -0.554
116 | TTTCAGCGTCAATATTTGCTGTCTCTTCCA | -0.725
117 | TAACCATATGTCTTAAGCTAACATGTACAG | 0.602
118 | TCAATAGAGCATGAGAACTTCTTCCAATGA | -0.813
119 | TTGTGAATAAGGATTATCACTGAATCGAGG | 0.035
120 | GGCCAATCCGGCTGGCAGCCGATTGACCTG | 3.35
121 | CCAGTGAGACCCATTTTGGACTTTGACCTC | 11.8
122 | GTTTTTCTTCCGGTCACATACTCTGGAAAT | 1.17
123 | TCTCACTCCAAAGGCTGTTTGCACCGTGTG | -0.092
124 | AGTGACTTAGCAGGATTCTTGCTACAACTG | -1.33
125 | AGGAGAGAGGCCTCTAGATAAACCAAGCCT | -1.31

Row | Sequence | binding signal (log2 normalized intensity)
126 | ACCCTCAGCTCCTCTCCTCCATGGCCTGGG | -0.337
127 | AGTGTTGCTCAAGTCTCCTGTTTTCTTATT | 1.31
128 | AACTACAGGGTCTGTGGTAGATTATCTACA | -0.399
129 | AGAATAGAGGCCTTTGTGCTGACTAAGAGG | -1.08
130 | CAACCTTTGAACTGGGTCTTAATAAGATAA | 3.62
131 | CGATCCTGCCCTTCTGACCTCCCAGGGATA | 3.94
132 | GTGTGAATCGACCTTTAGCACCGTAAGAGA | 6.04
133 | GGAATTTGGGTGATCCTGGTAGCAGGGGTG | 0.433
134 | TCAGGTGTGAACCCAGGCAAAGTCCAGAAA | 3.6
135 | CGTTTGCTCCCATCCCCCCAAAGGCTCTCT | 4.58
136 | TCACCATCCCTGTTGCCTCATCTGAAAAAA | 0.207
137 | ACCCTGACCTGTCAAGCAATGATCTTCATG | 0.201
138 | ACGAGGTGAGAGGCGGAACAAGGCTGAAGG | -1.39
139 | GGGAAGGGAGCAGTGGGGACGCCTTCCCCT | -1.28
140 | GCATCAGGGTCCACAAGGGTTTAAATCTGA | 0.675
141 | CTAATGCCTGGGAAAATGTTGATTACGTGT | 1.08
142 | GACCTTGTCATACTGGTTGAATGGACGGAC | 2.4
143 | GCTTGGAGCCCCTTTGGAGGGGAAGCTGGG | -1.33
144 | CTGGGGACCCGTCGCTGCTGCACACTTCCG | -1.29
145 | CCTTTGGACTGTCCTTTGCTAGATTCTTTC | 2.13
